The results in this text go back to the supplement of paper PMC9446081.

The structures appear in SMILES notation. Hit rate of the full screen: of about 39,000 compounds, about 220 (0.56%) showed activity. The list shows a part of the results.
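Further: static incubation at 37 °C against the wild-type strain, values averaged over two biological replicates.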

For this test, the system named is Escherichia coli K-12 BW25113. As to the kind of experiment: relative growth (OD600 normalised to plate interquartile mean) (fraction); higher = less growth inhibition, active = 0.2 or less. As to conditions: 50 µM; LB; incubation time: overnight (16-24 h).
Regarding `CN(C)CCCCCCNC(=O)[C@H]1C[C@H]2C(=O)NCC(=O)N2[C@H]1c1cccc(OCCO)c1`, the relative growth was inactive: 1.02.

Take `C[C@@H]1CCCCO[C@H](CN(C)C)[C@H](C)CN([C@H](C)CO)C(=O)c2cc(NC(=O)Nc3cccc4ccccc34)ccc2O1`: the relative growth is inactive: 0.998.

As for `C[C@@H]1CCCCO[C@H](CN(C)S(=O)(=O)c2cn(C)cn2)[C@H](C)CN([C@@H](C)CO)C(=O)c2cc(NC(=O)c3ccncc3)ccc2O1`, the relative growth is inactive: 0.834.

As for `Cc1ccc(S(=O)(=O)N(C)C[C@H]2Oc3ccc(NS(=O)(=O)c4ccccc4)cc3C(=O)N([C@@H](C)CO)C[C@@H]2C)cc1`, the relative growth is inactive: 1.04.

`COCC#Cc1ccc2c(c1)O[C@H](CN(C)C(=O)c1ccccc1F)[C@@H](C)CN([C@H](C)CO)S2(=O)=O`: the relative growth is inactive: 0.979.

As to `C[C@@H]1CCCCO[C@@H](CN(C)Cc2ccc3c(c2)OCO3)[C@H](C)CN([C@H](C)CO)C(=O)c2cc(NS(=O)(=O)c3ccc(F)cc3)ccc2O1`, the relative growth was inactive: 1.

For the molecule `COCC(=O)N(C)C[C@H]1Oc2cc(C#CC(C)(C)O)ccc2S(=O)(=O)N([C@H](C)CO)C[C@@H]1C`, the relative growth was inactive: 0.989.

Turning to `C[C@H](CO)N1C[C@H](C)[C@H](CN(C)C(=O)Nc2ccccc2)Oc2ccc(NC(=O)CCN3CCOCC3)cc2CC1=O`, the relative growth is inactive: 1.

`COC(=O)N1CCC[C@H](C(=O)O)C1`: the relative growth was inactive: 1.

In the case of `C=CCNC(=O)[C@H]1[C@@H]2C(=O)O[C@@H](c3ccccc3)[C@@H](c3ccccc3)N2[C@@H](c2ccccc2OCCO)[C@]12C(=O)Nc1ccc(C#CC3=CCCCC3)cc12`, the relative growth was inactive: 1.03.

In the case of `COc1ccc(NC(=O)Nc2cccc3c2O[C@H](CN(C)C(=O)Nc2cccc4ccccc24)[C@@H](C)CN([C@H](C)CO)C3=O)cc1`, the relative growth is inactive: 1.01.

Take `COCCNC(=O)C[C@H]1C[C@H]2c3cc(NC(=O)COC)ccc3O[C@H]2[C@@H](CO)O1`: the relative growth was inactive: 0.935.

For the molecule `CCO[C@H]1OC(C(=O)N2CCN(C)CC2)=C[C@@H](c2coc3ccccc3c2=O)[C@@H]1CCCOC(=O)NCCCCCC(=O)NO`, the relative growth was inactive: 1.01.

Consider `CCC(=O)Nc1ccc2c(c1)OC[C@H](C)N(C(=O)CN1CCOCC1)C[C@@H](C)[C@H](OC)CN(C)C2=O`, for which the relative growth is inactive: 1.01.

Regarding `C[C@H]1CN([C@@H](C)CO)C(=O)c2cccc(NS(=O)(=O)c3ccc(Cl)cc3)c2O[C@H]1CN(C)Cc1ccc(C(F)(F)F)cc1`, the relative growth was inactive: 1.05.

`C[C@@H]1CCCCO[C@H](CN(C)Cc2ccc(C(=O)O)cc2)[C@H](C)CN([C@H](C)CO)C(=O)c2cc(NC(=O)C3CCCCC3)ccc2O1`: the relative growth was inactive: 0.983.

`C[C@@H]1CN([C@@H](C)CO)C(=O)c2cc(NC(=O)Cn3cnnn3)ccc2O[C@H]1CN(C)Cc1ccccc1`: the relative growth was inactive: 0.994.

In the case of `CCCC[P+](CCCC)(CCCC)Cc1ccc(NC(=O)[C@@H](Cc2ccc3ccccc3c2)N=C(NC2CCCCC2)NC2CCCCC2)cc1`, the relative growth was active: 0.0386.

In the case of `C[C@@H]1CN([C@@H](C)CO)S(=O)(=O)c2ccc(C#CC3(O)CCCC3)cc2O[C@@H]1CN(C)C(=O)c1cccnc1`, the relative growth is inactive: 1.

As to `C[C@@H]1CCCCO[C@@H](CN(C)Cc2ccccc2)[C@H](C)CN([C@H](C)CO)C(=O)c2cc(NC(=O)C3CCCCC3)ccc2O1`, the relative growth is inactive: 0.997.

On to `CN(CC(=O)O)C1CCCC1`, for which the relative growth was inactive: 1.07.

On to `COc1ccc(S(=O)(=O)N(C)C[C@H]2Oc3c(NC(=O)C4CC4)cccc3C(=O)N([C@H](C)CO)C[C@@H]2C)cc1`, for which the relative growth is inactive: 0.992.

For the molecule `O=C(C[C@H]1CC=CC[C@@H](Cc2ccc(F)cc2)C(=O)OC[C@H](Cc2c[nH]c3ccccc23)NC1=O)NCCO`, the relative growth is inactive: 0.998.

In the case of `CC(C)NC(=O)N(C)C[C@@H]1Oc2c(NS(=O)(=O)c3cccs3)cccc2C(=O)N([C@H](C)CO)C[C@H]1C`, the relative growth is inactive: 0.995.

On to `C[C@@H]1CN([C@H](C)CO)C(=O)CCCn2cc(nn2)CO[C@@H]1CN(C)C(=O)Nc1ccnc(N2CCOCC2)c1`, for which the relative growth is inactive: 0.99.

For the molecule `C[C@@H]1CN([C@H](C)CO)C(=O)c2cc(C3=CCCCC3)cnc2O[C@@H]1CN(C)C(=O)CN1CCOCC1`, the relative growth was inactive: 0.995.

With `O=C1c2c(O)cccc2C(C2OC(CO)C(O)C(O)C2O)c2cc(CO)cc(O)c21` (stereo unspecified), the relative growth was inactive: 0.878.

`O=S(=O)(NCc1ccco1)N1CCOCC1`: the relative growth is inactive: 0.968.

`CCC(=O)N1C[C@]2(C1)CN([C@@H](CO)c1c2c2ccc(cc2n1C)OC)S(=O)(=O)C`: the relative growth is inactive: 1.

With `CCC[C@H]1CN(S(=O)(=O)c2c(C)cc(C)c3nonc23)C[C@@H]1N`, the relative growth was inactive: 1.

`CC(C)N1CC[C@@H](CN(C)Cc2ccc(Oc3ccccc3)cc2)Oc2c(NC(=O)c3ccncc3)cccc2C1=O`: the relative growth was inactive: 1.03.

As for `COc1ccc2c3c([nH]c2c1)[C@H](CO)N(C[C@]13CCN(CC1)Cc1ccccc1OC)C(=O)Nc1ccc(cc1)F`, the relative growth was inactive: 0.997.

Turning to `Cc1ccc(Cc2nc(-c3ccc(Cl)cc3)cs2)cc1`, the relative growth was inactive: 0.957.

In the case of `Cc1ccc(S(=O)(=O)Nc2ccc3c(c2)C(=O)N([C@H](C)CO)C[C@H](C)[C@@H](CN(C)C(=O)NC2CCCCC2)OCCCC[C@H](C)O3)cc1`, the relative growth is inactive: 1.03.

For the molecule `C[C@H](CO)N1C[C@H](C)[C@H](CN(C)Cc2ccc(Oc3ccccc3)cc2)Oc2ccc(NC(=O)NC3CCCCC3)cc2CC1=O`, the relative growth is inactive: 1.03.

In the case of `C[C@@H]1CCCCO[C@@H](CN(C)Cc2ccc(Cl)c(Cl)c2)[C@H](C)CN([C@H](C)CO)C(=O)c2cc(N(C)C)ccc2O1`, the relative growth was inactive: 1.02.

Regarding `COc1ccc(NC(=O)Nc2ccc3c(c2)C(=O)N([C@@H](C)CO)C[C@@H](C)[C@H](CN(C)Cc2ccc(Cl)c(Cl)c2)OCCCC[C@H](C)O3)cc1`, the relative growth is inactive: 1.03.

Consider `C[C@@H]1CN([C@@H](C)CO)C(=O)CCCn2nncc2CO[C@@H]1CN(C)S(=O)(=O)c1ccc(Oc2ccccc2)cc1`, for which the relative growth is inactive: 1.02.

Consider `Cc1cc(C(=O)Nc2cccc3c2O[C@@H](CN(C)C(=O)Nc2c(C)noc2C)[C@H](C)CN([C@H](C)CO)C3=O)n(C)n1`, for which the relative growth was inactive: 1.04.

`C[C@@H]1CN([C@@H](C)CO)C(=O)c2cc(NS(=O)(=O)c3ccc(F)cc3)ccc2O[C@@H](C)CCCCO[C@@H]1CN(C)C(=O)Cc1ccccc1`: the relative growth is inactive: 1.02.

As for `C[C@@H]1CN([C@H](C)CO)C(=O)c2cc(NC(=O)CCC(F)(F)F)ccc2O[C@@H](C)CCCCO[C@H]1CN(C)S(=O)(=O)c1cccs1`, the relative growth was inactive: 0.959.

`CO[C@@H](CN(C)S(=O)(=O)c1cccc(Cl)c1)[C@H](C)CN([C@H](C)CO)S(=O)(=O)c1cccc(Cl)c1`: the relative growth was inactive: 1.03.

With `O=C(NC(=O)N1CCOCC1)c1ccc(S(=O)(=O)N2CCOCC2)cc1`, the relative growth was inactive: 0.963.

Consider `COc1ccc(S(=O)(=O)Nc2ccc3c(c2)C(=O)N([C@H](C)CO)C[C@H](C)[C@@H](CN(C)Cc2ccncc2)O3)cc1`, for which the relative growth was inactive: 1.01.

On to `CO[C@@H](C(=O)N(C)C[C@@H]1OCc2ccccc2-c2c(n(C)c3ccccc23)C(=O)N([C@H](C)CO)C[C@H]1C)c1ccccc1`, for which the relative growth was inactive: 0.993.

In the case of `CCCCC(=O)N(Cc1ccc(-c2ccccc2-c2nn[nH]n2)cc1)C(C(=O)O)C(C)C` (stereo unspecified), the relative growth was inactive: 1.21.

Consider `Cc1ccc(-c2cnc3c(c2)C(=O)N([C@H](C)CO)C[C@@H](C)[C@H](CN(C)C(=O)Cc2ccncc2)O3)cc1`, for which the relative growth was inactive: 1.01.

In the case of `C[C@@H]1CN([C@@H](C)CO)C(=O)Cc2cc(NC(=O)C3CC3)ccc2O[C@H]1CN(C)C(=O)Nc1ccc(F)cc1`, the relative growth is inactive: 1.01.

In the case of `CNC[C@@H]1OCCCC[C@H](C)Oc2ccc(NC(=O)Nc3ccc(C(F)(F)F)cc3)cc2C(=O)N([C@H](C)CO)C[C@H]1C`, the relative growth is inactive: 0.98.

On to `CO[C@H](CN(C)C(=O)C1CCOCC1)[C@@H](C)CN(C(=O)Nc1ccc(C(F)(F)F)cc1)[C@H](C)CO`, for which the relative growth is inactive: 0.778.

`COc1cccc(S(=O)(=O)Nc2ccc3c(c2)[C@@H]2C[C@@H](CC(=O)NCCc4ccccc4)O[C@H](CO)[C@@H]2O3)c1`: the relative growth was inactive: 0.976.

As to `C[C@@H]1CN([C@@H](C)CO)S(=O)(=O)c2ccc(C#Cc3cccnc3)cc2O[C@H]1CN(C)C(=O)CN(C)C`, the relative growth was inactive: 0.908.

As for `Cn1ccnc1C(=O)NCc1cnc2n1CCNCC2`, the relative growth was inactive: 0.999.

Regarding `C[C@H]1CN([C@@H](C)CO)C(=O)c2cc(NC(=O)CCCN(C)C)ccc2O[C@@H]1CN(C)C(=O)NC1CCCCC1`, the relative growth is inactive: 1.02.

For `COCCOC(=O)N1C(=O)[C@@]2(c3cc(C#CC4(O)CCCCCC4)ccc31)[C@H](C(=O)N1CCCCCCC1)[C@H]1C(=O)O[C@H](c3ccccc3)[C@H](c3ccccc3)N1[C@@H]2c1ccc(OCCO)cc1`, the relative growth was inactive: 1.06.

`C[C@@H]1CN([C@@H](C)CO)C(=O)Cc2cc(NC(=O)CCCN(C)C)ccc2O[C@H]1CN(C)S(=O)(=O)c1ccccc1`: the relative growth was inactive: 0.938.

Regarding `CC(C)C1=CC2=CCC3C(C)(C(=O)O)CCCC3(C)C2CC1` (stereo unspecified), the relative growth is inactive: 1.07.

As for `C[C@H](CO)N1C[C@H](C)[C@@H](CN(C)S(=O)(=O)c2ccc(Cl)cc2)Oc2c(NC(=O)C3CC3)cccc2C1=O`, the relative growth is inactive: 1.01.

For `O=C(C[C@@H]1CC[C@H]2[C@@H](COC[C@@H](O)CN2C(=O)c2ccc(F)cc2)O1)NCCCN1CCOCC1`, the relative growth is inactive: 1.01.

Consider `COCC(=O)Nc1ccc2c(c1)OC[C@H](C)N(C(=O)Cc1cccnc1)C[C@H](C)[C@H](OC)CN(C)C2=O`, for which the relative growth is inactive: 0.994.

For `C[C@H](CO)N1C[C@H](C)[C@@H](CN(C)Cc2ccc(C(F)(F)F)cc2)Oc2ccc(NS(C)(=O)=O)cc2CC1=O`, the relative growth is inactive: 0.897.
